Among all 310,000 compounds or so, about 2,200 (0.71%) showed an effect of 50% or more. The effect is printed as a negative number. Some of the results follow.
The molecules below were run against human ether-à-go-go-related gene (hERG) potassium channel (human, UniProt Q12809) (assay: primary screen, population patch clamp on CHO cells stably expressing hERG).
Sequence of human ether-à-go-go-related gene (hERG) potassium channel (Q12809 whole entry, looked up): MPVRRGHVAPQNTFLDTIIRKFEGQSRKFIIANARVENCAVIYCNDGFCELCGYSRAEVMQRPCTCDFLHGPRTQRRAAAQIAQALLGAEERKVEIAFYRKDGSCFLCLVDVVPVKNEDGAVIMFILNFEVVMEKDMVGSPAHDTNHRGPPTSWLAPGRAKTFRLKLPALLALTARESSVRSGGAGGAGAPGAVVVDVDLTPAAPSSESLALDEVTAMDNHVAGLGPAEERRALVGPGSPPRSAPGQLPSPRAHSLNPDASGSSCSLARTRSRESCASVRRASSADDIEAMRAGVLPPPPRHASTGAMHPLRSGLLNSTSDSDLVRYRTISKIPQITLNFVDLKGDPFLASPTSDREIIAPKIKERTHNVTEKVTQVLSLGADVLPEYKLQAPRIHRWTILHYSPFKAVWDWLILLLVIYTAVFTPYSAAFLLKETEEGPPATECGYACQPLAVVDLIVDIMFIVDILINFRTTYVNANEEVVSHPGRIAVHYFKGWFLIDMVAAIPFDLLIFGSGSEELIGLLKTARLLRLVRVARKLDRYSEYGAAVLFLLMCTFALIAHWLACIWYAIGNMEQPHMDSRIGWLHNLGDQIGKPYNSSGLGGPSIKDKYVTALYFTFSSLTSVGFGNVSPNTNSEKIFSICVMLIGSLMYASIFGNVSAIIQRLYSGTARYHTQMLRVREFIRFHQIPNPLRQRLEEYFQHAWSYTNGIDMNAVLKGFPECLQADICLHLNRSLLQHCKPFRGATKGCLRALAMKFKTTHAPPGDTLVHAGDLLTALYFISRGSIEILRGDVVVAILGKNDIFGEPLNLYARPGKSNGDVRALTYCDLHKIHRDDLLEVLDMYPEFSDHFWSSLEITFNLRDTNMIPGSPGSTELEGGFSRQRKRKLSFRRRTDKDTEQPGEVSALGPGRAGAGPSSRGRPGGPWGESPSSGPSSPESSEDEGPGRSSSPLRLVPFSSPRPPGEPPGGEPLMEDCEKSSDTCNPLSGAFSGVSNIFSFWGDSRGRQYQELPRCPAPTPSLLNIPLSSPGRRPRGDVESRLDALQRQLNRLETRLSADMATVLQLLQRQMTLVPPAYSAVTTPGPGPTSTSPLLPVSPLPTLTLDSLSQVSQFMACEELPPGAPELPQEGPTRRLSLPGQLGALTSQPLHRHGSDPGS

SMILES	hERG current change (%, negative = inhibition) at 1uM
CCOCCCNC(=S)N1C2CCC1CC(NC(=O)NC13CC4CC(CC(C4)C1)C3)C2 (centres unmarked)	9.44%
CCCNCc1cc(OC)c(OCc2ccccc2)cc1Br.Cl	8.9%
COc1ccc(NC(=O)CSc2nc(C3CC3)nc3ccccc23)c(OC)c1	11.5%
Cc1ccc2sc(N3CCN(CCNC(=O)c4ccco4)CC3)nc2c1C.Cl	-12.6%
COc1ccc(C(C)(C)C)cc1NC(=O)COC(=O)c1ncc(Cl)c(Cl)c1Cl	6.78%
N#Cc1ccc(CSc2nnc(-c3cccnc3)o2)cc1	-3.75%
O=C(Cc1cccs1)N1CCCC(c2nc3c(nnn3Cc3ccccc3Cl)c(=O)[nH]2)C1 (centres unmarked)	-7.61%
Cc1ccc(C(=O)NNC(=O)c2cc(C)nc3ccccc23)cc1	5.58%
CC(=O)C1=NOC2C(=O)N(c3ccccc3)C(=O)C12 (centres unmarked)	9.42%
Cc1ccc(-c2nc3ccc(Cl)cc3n2OC(C)C(=O)O)cc1 (centres unmarked)	11%
O=C(CNC(=O)C1(c2ccccc2)CC1)Nc1ccc(F)c(F)c1	9.39%
C(/C=C/c1ccccn1)=C\c1ccccc1	7.67%
CCCCCCn1c(O)c(/C=C2\C=NN=C2c2ccccc2)sc1=S	12.5%
COc1cc(NC(=O)CN2C(=O)NC(C)(CCC(C)C)C2=O)cc(OC)c1 (centres unmarked)	1.73%
O=C(NCc1ccc(F)cc1)C(=O)NCC1CCCN1S(=O)(=O)c1ccccc1 (centres unmarked)	-3.58%
CC(C)C(=O)N(Cc1ccc(F)cc1)Cc1nc2ccccc2c(=O)[nH]1	9.78%
COc1ccc2c(c1)c(=O)c(C(=O)O)c(-c1ccc3c(c1)OCO3)n2C	-3.85%
Br.CCCCC(CCC(=O)O)(C(=O)OCC)c1csc(Nc2ccc(OCC)cc2)n1 (centres unmarked)	8.27%
CN1C(=O)CC(N2CCN(CCN=CC3=C(O)CC(C)(C)CC3=O)CC2)C1=O (centres unmarked)	17.2%
CCOc1ccc(NC(=O)COC(=O)c2ccc3c(c2)C(=O)N(CCc2ccccc2)C3=O)cc1	12.4%
COc1ccc(C(=O)Nc2ccccc2C(=O)NC(Cc2ccc(O)cc2)C(=O)NNC(=O)c2ccccc2)cc1 (centres unmarked)	7.58%
C#CCN(C)CCCOc1ccc(Cl)cc1Cl.Cl	8.12%
CCC(=NC1CC1)c1c(O)n(-c2ccc(OC)cc2)c(=O)[nH]c1=O	16.9%

SMILES	hERG current change (%, negative = inhibition) at 1uM
CC1CCN(C(=O)CSc2nnc(-c3ccncc3)n2C)CC1	13.2%
O=[N+]([O-])c1ccc(Oc2ccc(/C=N/O)cc2)nc1	9.68%
CCOc1ccc(CCNC(=O)COC(=O)c2c(OC)cccc2OC)cc1OCC	2.73%
Cc1cc(C)cc(Oc2nc(C(F)(F)F)nc3ccccc23)c1	12.4%
CCOc1ccc(CC(=O)N2CCN(c3ccc(N4CCOCC4)nn3)CC2)cc1OCC	8.71%
O=C(CSc1nnnn1-c1cccnc1)Nc1ccc(OCc2ccccc2)cc1	-6.39%
Cc1cccc(C)c1-n1c(SCC(=O)NCc2ccco2)nc2ccccc2c1=O	-9.19%
COc1ccc(C2C(C(C)=O)=C(C)Nc3ncnn32)cc1 (centres unmarked)	14.5%
CN(C)C(=O)c1cn(-c2ccc(Cl)cc2)c(=O)c2ccccc12	-1.44%
O=C(Nc1ccc(F)cc1F)c1csc(-c2cccs2)n1	21.1%
CC(=O)c1ccc(NC(=S)NCc2cccnc2)cc1	5.13%
O=C(O)c1cc(=O)c2ccccc2[nH]1	12.6%
COc1ccc(N2C(=O)CCC(C(=O)Nc3ccccn3)C2c2ccc(OC)c(OC)c2)cc1 (centres unmarked)	17.2%
COC(=O)C1=C(c2ccc(F)cc2OCc2ccccc2)C[C@@H]2CC[C@H]1N2C(=O)N1CCC(C)CC1	11%
CC(=O)n1c(Cl)c(NC(=O)CCl)c2ccccc21	1.44%
COc1ccccc1C1C2=C(CCCC2=O)N(CC(=O)O)C2=C1C(=O)CCC2	16.6%
CCOC(=O)c1c(C)oc2ccc(NS(=O)(=O)c3cccs3)cc12	9.68%
Cc1cc2c(ncn2Cc2ccccc2)c(N)c1C	11.6%
Cc1cc(NC(=O)C2=C(O)c3ccccc3S(=O)(=O)N2C)no1	12.7%
COc1ccc(/C=N/OC/C(O)=C(\C#N)c2nc3ccccc3[nH]2)cc1	-13%
COc1ccccc1OCCSc1nnc(C)n1-c1ccccc1	2.16%
Cc1cc(NC(=O)CSc2nc3ccccc3s2)no1	15.2%
COc1ccc(NC(=S)N2CCN(Cc3cccc(F)c3)CC2)c(OC)c1	4.54%

SMILES	hERG current change (%, negative = inhibition) at 1uM
CCNC(=O)COC(=O)Cc1ccc(Cl)cc1Cl	8.35%
CN1CCN(c2ccc(S(=O)(=O)N3CCOCC3)cc2NC(=O)Cc2ccccc2F)CC1	0.865%
COc1ccccc1CC(=O)NC1CC1	11.3%
CCNS(=O)(=O)c1ccc(NC(=O)Cn2cc([N+](=O)[O-])cn2)cc1	19%
COc1ccc(CN2C(=O)CS/C2=N/N=C/c2cccs2)cc1	11.1%
S=c1[nH]nc(-c2ccco2)n1/N=C/C=C/c1ccco1	16.3%
C/C(=N\NC(=O)c1c(Br)c(C)nn1C)c1cccc(NC(=O)c2ccccc2C)c1	-0.655%
CN(C)C1=NC(=O)/C(=C\c2ccccc2)S1	11.7%
Cc1nn(C)cc1/C=N/n1nnnc1N	-3.66%
COc1ccc(Br)cc1CNC(=O)C1CCCN(S(C)(=O)=O)C1 (centres unmarked)	-7.67%
O=S(=O)(c1cccc(-c2cn3ccccc3n2)c1)N1CCCC1	-0.2%
O=C(C[n+]1ccccc1)c1ccc(Cl)cc1.[I-]	13.5%
COC(=O)c1ccc(CSc2nc3ccccc3c(=O)n2C)o1	9.6%
N#Cc1nc(-c2cccc3ccccc23)oc1NCCN1CCOCC1	0.449%
Cc1cc(OCc2cc(C(=O)N3CCN(CC4CC4)CC3)no2)cc(C)c1Cl	17.3%
O=C(COC(=O)CNC(=O)c1ccc(Cl)c([N+](=O)[O-])c1)NC(=O)CN1CCCC1=O	5.44%
CC1CCN(CCCNC(=O)C2CC(=O)N(C3CCCCCC3)C2)CC1 (centres unmarked)	17.8%
O=C(N/N=C/c1ccccc1C(=O)O)c1cccc(S(=O)(=O)N2CCCCC2)c1	12.9%
CC1(C)CC(NC(=O)C(c2ccccc2)c2ccccc2)CC(C)(C)N1	14.3%
CCOc1ccccc1N1CN(CC)CNC1=S	0.0763%
Cc1nc(C)n(CC(=O)N2CCCC(C(=O)c3cccc4ccccc34)C2)n1 (centres unmarked)	9.26%
CCOc1ccc(CN(CC)C(=O)c2ccc3c(c2)[nH]c(=O)c(=O)n3CC)cc1OC	3.93%
Cc1cc(=O)[nH]c(N/N=C/c2c(F)c(F)c(F)c(F)c2F)n1	12.8%

SMILES	hERG current change (%, negative = inhibition) at 1uM
CCC(=O)Nc1ccc(SC#N)cc1C	11.1%
O=C(O)CCC(=O)Nc1sc2c(c1C(=O)Nc1cccc3ccccc13)CCCCC2	3.36%
C=CCOC(=O)CCC(=O)Nc1cccc2ccccc12	7.61%
CN(C)CCCN(C(=O)c1ccc2c(c1)CCCC2)c1nc2ccc(Cl)cc2s1.Cl	3.37%
COc1ccc(-c2cn3cc(C)ccc3n2)cc1F	12.3%
CSc1cccc(NC(=O)CCCOc2ccc(Cl)cc2Cl)c1	13.9%
CC(C)(O)C(=O)NNC(=S)Nc1ccc(F)c(Cl)c1	15.4%
CCN(CC)S(=O)(=O)c1cccc(C(=O)OCC(=O)NC(C)c2ccccc2)c1 (centres unmarked)	8.48%
COc1cccc(S(=O)(=O)Nc2ccc(C(=O)N3CCOCC3)cc2)c1	6.75%
O=C(C[n+]1ccn(-c2ccccc2)c1)c1ccc([N+](=O)[O-])cc1.[Br-]	-30.2%
Cc1cccc(CN(CC(=O)N/N=C/c2ccco2)S(=O)(=O)c2ccc(Cl)cc2)c1	7.12%
COc1cccc(C(=O)NCC2CCCN2S(=O)(=O)c2ccccc2)c1 (centres unmarked)	11.9%
COc1ccc(N(CC(=O)O)S(=O)(=O)c2cccnc2)cc1	14.2%
COc1cccc(-c2c(C(=O)N/N=C(\C)c3ccc(Cl)s3)nnn2-c2nonc2N)c1	16%
Cc1nc2sccn2c1-c1csc(NCc2ccccc2)n1	-0.0684%
Cc1ccc(NC(=O)COc2ccccc2C=O)cc1Cl	10.5%
CC(=O)C1C(c2ccc([N+](=O)[O-])cc2)c2c(noc2C)CC1(C)O (centres unmarked)	13.8%
CCCc1cc(=O)[nH]c(/N=C(\N)Nc2ccccc2)n1	2%
COc1ccc(/C=C/C(=O)NCCSCc2ccco2)cc1	5.37%
CCOc1cc(N2CCOCC2)c(OCC)cc1NC(=O)CN1C(=O)NC(C)(C2CC2)C1=O (centres unmarked)	11%
